# Assay results taken from PubChem BioAssay AID504706 (National Center for Advancing Translational Sciences (NCATS), 2011).
# About 200 (0.062%) of roughly 320,000 compounds were called active. This list was built around the results that the source calls inconclusive (neither active nor inactive); the mix of calls is not that of the screen. Calls come from the whole dose curve; as a rule, active = well fitted activation curve with a large enough effect; inconclusive = small, poorly fitted or top-dose-only effect; inactive = no such curve, though single readings can be large or run the other way. No potency is given beside an inconclusive call; the fits are too rough.
# Assay: qHTS assay for re-activators of p53 using a Luc reporter; note: nearly all actives have a fitted effect of over 45% in size; for activity change, positive = activation: % of control where 0% means no effect
# Details: H1299 p53-A138V BP100-luciferase reporter, luminescence, 24 h; series mostly up to 92.2 µM; activity change, positive = activation: at the top concentration
# Procedure, shortened: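 p53-null H1299 cells stably carrying temperature-sensitive p53-A138V and a BP100-luciferase reporter were pinned with compounds (4-point, 1:5 series) and held 24 hrs at 37 deg C. Luminescence was read 10 min after detection reagent.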
# Potency is the fitted concentration of half-maximal effect; tags give direction and shape of the fitted curve.
Structure (SMILES),Potency,"activity change, positive = activation"
CCCCc1nnc(NC(=O)CCS(=O)(=O)c2ccc(C)cc2)s1,"inconclusive [activator, full curve, poor fit]",–
CCCCCCc1cc2cc(C(=O)NC)c(=N)oc2cc1O,–,inactive: 12%
CC(Sc1ccc2nnc(-c3ccc(F)cc3)n2n1)C(=O)O (centres undefined),–,inactive: -1.12%
CC(C)c1ccccc1OCCNC(=O)c1cccnc1,"inconclusive [activator, single point]",–
CS(=O)(=O)N1CCC(C(=O)Nc2cc(Cl)c(Cl)cc2Cl)CC1,"inconclusive [activator, partial curve, poor fit]",–
Cc1noc(C)c1C(=O)Nc1nc(-c2cc(F)ccc2F)cs1,"inconclusive [activator, partial curve, poor fit]",–
CCn1cc(-c2cc(C(F)(F)F)n3nc(C(=O)O)cc3n2)c(C)n1,"inconclusive [activator, single point]",–
CC1CCN(C(=O)COC(=O)C23CC4CC(CC(O)(C4)C2)C3)CC1,"inconclusive [activator, partial curve, poor fit]",–
Fc1cccc(Cl)c1Cc1noc(/C=C/c2ccccc2)n1,"inconclusive [activator, single point]",–
CCOc1ccc(N=Nc2c(=O)[nH]n3c(C)cc(C)nc23)cc1,"inconclusive [activator, single point]",–
C/C(CC(=O)Nc1cc(C)ccn1)=N\NC(=O)C(=O)NC(C)C,–,inactive: 2.02%
Cc1occc1C(=O)Nc1ccc(S(N)(=O)=O)cc1,–,inactive: 8.19%
CCCc1nn(C)c(C(=O)Nc2ccc3ccccc3c2)c1Cl,"inconclusive [activator, partial curve, poor fit]",–
CCn1c(=S)[nH]c2cc(S(=O)(=O)N3CCOCC3)ccc21,–,inactive: -13.9%
N#Cc1ccc(-c2ccc(F)cc2)nc1Oc1ccc(Cl)c(Cl)c1,–,inactive: 5.29%
O=C(COC(=O)c1n[nH]c2ccccc12)Nc1ccccc1,–,inactive: 25.8%
c1ccc(OCCOc2cccc3cccnc23)cc1,"inconclusive [activator, partial curve, poor fit]",–
C/C(=N\NC(=O)c1ccc(Cl)c(Cl)c1)c1ccccn1,"inconclusive [activator, full curve, poor fit]",–
C#CCOC(=O)c1csc2nnsc12,–,inactive: -4.48%
Fc1ccc2nc3[nH]c4ccccc4c3nc2c1,"inconclusive [activator, partial curve, poor fit]",–
COc1ccccc1N(C)S(=O)(=O)c1ccc(C(=O)Nc2cccc(Br)c2)cc1,–,inactive: -0.833%
COc1ccc(-c2cc3ccc(OCC(N)=O)cc3oc2=O)cc1OC,"inconclusive [activator, single point]",–
Cc1ccc(C(c2sc3nc(C)nn3c2O)N2CCN(CCO)CC2)cc1 (centres undefined),–,inactive: -2.01%
O=C(Nc1ccc(F)cc1F)c1cccc(C(=O)Nc2ccc(F)cc2F)n1,"inconclusive [activator, single point]",–
Cc1ccsc1C(=O)NCCC(c1ccccc1)c1ccccc1,–,inactive: -8.37%

Structure (SMILES),Potency,"activity change, positive = activation"
O=C(N/N=C\C=C\c1ccc2c(c1)OCO2)C1COc2cc3ccccc3cc2O1 (centres undefined),–,inactive: -10%
O=C1NN(c2ccc(Br)cc2)C(=O)/C1=C\c1ccc(O)cc1O,–,inactive: 3.1%
CCOC(=O)n1cc(-c2cnc(CNC(=O)C(C)(c3ccccc3)c3ccccc3)o2)c2ccccc21,–,inactive: -1.3%
Cc1ccc2c(c1)NC(=O)CC(c1ccccc1)=N2,"inconclusive [activator, partial curve, poor fit]",–
Cc1ccn2c(Nc3ccc4c(c3)OCO4)c(-c3ccccn3)nc2c1,active: 20 µM,–
COc1ccc2[nH]c(-c3ccc(C)cc3)cc(=O)c2c1,"inconclusive [activator, partial curve, poor fit]",–
Cc1ccc2nc(C3CCCN(C(=S)Nc4cccc(C)c4C)C3)[nH]c2c1 (centres undefined),–,inactive: -6.99%
CCN(CC(=O)Nc1cc(Cl)ccc1C)C(=O)c1cc([N+](=O)[O-])ccc1N1CCOCC1,–,inactive: 0.69%
O=c1[nH]ncn1-c1ccccc1,–,inactive: -2.65%
O=C(CCl)N(C/C=C/c1ccccc1)c1ccc2c(c1)OCCO2,–,inactive: -9.62%
C=CCn1c(C)c(C(C)=O)c(N2CCCC2)nc1=S,–,inactive: 0.881%
O=C(Nc1scc(-c2ccccc2)c1C(=O)O)c1ccc(F)cc1,"inconclusive [activator, partial curve, poor fit]",–
Cn1c(=N)n(CC(=O)c2cccs2)c2ccccc21,"inconclusive [activator, partial curve, poor fit]",–
O=C1/C(=C2\C(=O)N(Cc3ccc(F)cc3)c3ccccc32)SC(=S)N1CCS(=O)(=O)O,–,inactive: -2.31%
CC(=O)CC1(O)C(=O)N(CN2CCN(c3ccccc3)CC2)c2ccccc21 (centres undefined),"inconclusive [activator, single point]",–
COC(=O)CSC(C(=O)Nc1ccc(C)c(C)c1)c1ccccc1 (centres undefined),"inconclusive [activator, partial curve, poor fit]",–
COc1ccc2c(c1)c(/C=C/c1cc[n+](C)cc1)cn2C,"inconclusive [activator, single point]",–
S=C(NCCOCCOCCNC(=S)Nc1ccccc1)Nc1ccccc1,–,inactive: -3.18%
Cc1c(OCC(=O)OC(C)(C)C)ccc2c3c(c(=O)oc12)CCC3,"inconclusive [activator, single point]",–
COc1ccccc1N1CCN(C(=O)/C=C/c2ccco2)CC1,"inconclusive [activator, single point]",–
CCN(CC1CCCN(CCc2cccc(OC)c2)C1)C(=O)c1ccoc1 (centres undefined),"inconclusive [activator, single point]",–
CN(CCO)CCC(=O)NC1(C)CS(=O)(=O)CC1S(=O)(=O)O (centres undefined),–,inactive: -2.1%
COC(=O)c1ccc(-c2nc3ccc(C)cc3o2)cc1,–,inactive: 27.3%
Cc1ccc(NC(=O)c2ccc(S(=O)(=O)C(F)F)cc2)c(C)c1,"inconclusive [activator, partial curve, poor fit]",–
COc1ccc2nc(SCC(=O)/C(C#N)=C(\C)N)[nH]c2c1,"inconclusive [activator, full curve, poor fit]",–

Structure (SMILES),Potency,"activity change, positive = activation"
Cc1ccsc1C(=O)OCC(=O)N1CCc2ccccc2C1,–,inactive: 18.1%
O=C(CSc1nnc(Nc2ccccc2F)s1)NC1CCCC1,"inconclusive [activator, single point]",–
CCN(CC)C(=O)CSc1nc2ccsc2c(=O)n1CCCC(=O)NCCc1ccc(S(N)(=O)=O)cc1,–,inactive: -2.14%
COc1ccccc1/C=C\C=N\n1c(-c2ccc(Cl)cc2)n[nH]c1=S,–,inactive: 13.9%
O=C(COC(=O)COc1ccccc1)Nc1ncc([N+](=O)[O-])s1,"inconclusive [activator, partial curve, poor fit]",–
CCOc1ccc(N2C(=O)CC(Sc3nc(C)cc(C)n3)C2=O)cc1 (centres undefined),–,inactive: -7.88%
CC(C)c1ccc(NC(=O)c2cccc(Br)c2)cc1,"inconclusive [activator, partial curve, poor fit]",–
CN1CCN(C(=O)c2cccc(COc3cc(Cl)ccc3Cl)c2)CC1,"inconclusive [activator, full curve, poor fit]",–
COc1ccc2c(c1)CCc1sc(NC(=O)c3ccco3)nc1-2,"inconclusive [activator, single point]",–
O=C(NC1CCCCC1)C1CCN(c2nnnn2-c2ccccc2)CC1,–,inactive: 2.88%
Cc1c(C(=O)OC(C)C)sc(N)c1C(=O)OC(C)C,–,inactive: 23.9%
CN(C)c1ccc(C(CNC(=O)c2cccs2)N(C)C)cc1 (centres undefined),"inconclusive [activator, full curve, poor fit]",–
N=C(N)SCc1nc2ccccn2c1Br,"inconclusive [activator, single point]",–
O=C(/C=C/c1c(F)cccc1Cl)c1ccc(O)cc1,"inconclusive [activator, single point]",–
CCOc1ccc(C2=Nc3ccc(Br)cc3C(c3ccc(N4CCOCC4)cc3)=NN2)cc1,"inconclusive [activator, partial curve, poor fit]",–
CCOC(CNC(=O)c1ccc2c(c1)ncn2-c1cccc(F)c1)OCC,–,inactive: -2.72%
O=C(Nc1ccc(Oc2ccccc2)nc1)C1CCN(Cc2ccccc2)CC1,"inconclusive [activator, single point]",–
O=C1c2ccccc2-c2onc3c(N4CCN(CCO)CC4)cc(N4CCN(C(=O)c5ccco5)CC4)c1c23,–,inactive: -33.4%
Cc1cc(NC(=O)CCC2CCCCC2)no1,"inconclusive [activator, partial curve, poor fit]",–
Fc1cccc(Cl)c1Cn1nnc(-c2ccc3c(c2)OCO3)n1,"inconclusive [activator, partial curve, poor fit]",–
CCOC(=O)c1c(C)[nH]c(C(=O)COC(=O)CNC(=O)c2ccccc2Cl)c1C,"inconclusive [activator, full curve, poor fit]",–
Cc1cccnc1NC(=O)CNC(=O)c1sc2ccccc2c1Cl,"inconclusive [activator, single point]",–
N/C(=N\OC(=O)c1ccc(Cl)cc1Cl)c1ccccc1,"inconclusive [activator, full curve, poor fit]",–
Cc1c(C(=O)OCC(=O)N2CCCC2)cccc1[N+](=O)[O-],"inconclusive [activator, single point]",–
